Some of the results follow. At the low end of the ranking, values are background and their order means little.
The sequences below were run against SIX1-Q177R homeodomain (UniProt Q15475) (assay: universal protein binding microarray). Settings: Universal all-10-mer PBM (8x60K, AMADID 030236), 300 nM GST-tagged protein, Alexa Fluor 488 anti-GST; buffer, salt, pH and temperature not stated; high values mean tight binding; most listed sequences are background and not binding sites; double strand, one strand shown.

| Sequence | binding signal [E-score] |
| --- | --- |
| CGATCATC | -0.128 |
| AGATGTGC | -0.208 |
| ATTCCTCG | -0.0536 |
| GCATTTAC | -0.0427 |
| CGCTATAG | 0.00779 |
| CTACTCGC | 0.0269 |
| AACCTGCA | -0.131 |
| CGAAGCAC | 0.0809 |
| CACCAGTA | 0.272 |
| CGGCCTCA | -0.174 |
| AAGGTAGT | 0.0872 |
| ACCAGTTA | 0.11 |
| GAGGTTCA | -0.045 |
| CCCTATAG | -0.132 |
| GACTTACA | 0.041 |
| TAATAATA | -0.0808 |
| GACACTCA | 0.422 |
| CCGTTATC | -0.133 |
| GGAAAGTA | -0.212 |
| CCTCACGA | -0.0243 |
| ACAGTAGT | 0.0989 |
| AAACAAGC | -0.117 |
| CACGCAAC | 0.227 |
| ATTTCCTG | -0.23 |
| CCACCAAG | 0.0904 |

| Sequence | binding signal [E-score] |
| --- | --- |
| TCTGATAA | -0.114 |
| ATTCAATA | -0.0774 |
| ATGGACAT | -0.167 |
| AGAGACCC | 0.144 |
| ACGCTCGG | -0.0631 |
| CACTTCGG | 0.11 |
| GTCCAGCA | -0.171 |
| GACCCGCA | 0.000305 |
| AGCCCTGC | -0.0829 |
| CAGAAGCA | -0.174 |
| CGCTCATC | -0.217 |
| CCCTCCTC | 0.0457 |
| AGCCCAAT | -0.204 |
| ATAAGACC | -0.16 |
| ATGCAAAG | -0.161 |
| CGATCCCA | 0.146 |
| GTAGAAAC | -0.0645 |
| AACAGGAG | 0.131 |
| TACCTACA | 0.312 |
| TCCAAGCA | -0.172 |
| ATCCGCTG | 0.0335 |
| CCCGGGAA | 0.0431 |
| AGTCCTAG | 0.0211 |
| ATTATCAA | 0.131 |
| AAGTATCG | 0.103 |

| Sequence | binding signal [E-score] |
| --- | --- |
| CGTCATAG | -0.258 |
| AGTGTCAA | 0.424 |
| GGGAGGAC | -0.113 |
| AAGTCCGC | -0.287 |
| ATCGGATA | 0.17 |
| CCTGAGTC | 0.0217 |
| AATCCACT | 0.122 |
| AGTACTGA | -0.00458 |
| GAACGCAC | 0.0154 |
| ACGCAGGG | 0.164 |
| CCACCAAA | -0.0128 |
| CAATAGGC | -0.0592 |
| CCCCATAC | 0.057 |
| AATAATCC | -0.0226 |
| AGTAGACC | -0.233 |
| AGGGCCCG | 0.00179 |
| GGATTCAC | 0.0237 |
| AGTGCACC | 0.28 |
| CCAGATAC | 0.0953 |
| ACATACAC | 0.421 |
| AGGTAGAA | -0.0367 |
| AACTCAGC | -0.244 |
| AAAGTGCG | -0.125 |
| AGAGTTAA | 0.0409 |
| GCACCGAC | 0.225 |

| Sequence | binding signal [E-score] |
| --- | --- |
| CACGGATA | 0.178 |
| AGCCAACA | 0.0287 |
| AGAATTCC | -0.176 |
| AAGGGTGT | 0.464 |
| AGGAAATC | -0.17 |
| CTACCTCC | -0.0719 |
| AGTAAGTG | 0.12 |
| CTAGGGAC | 0.0414 |
| CACGCTCC | 0.14 |
| AGCACGAT | 0.0126 |
| GCGCCCAC | -0.0252 |
| ACTGGTCA | -0.092 |
| GACGAGTC | -0.0733 |
| ATGCCAAC | -0.185 |
| GGTTCCTA | 0.0994 |
| CTCAGCAC | 0.185 |
| CCCACGTC | 0.0689 |
| ACACTCGC | 0.385 |
| AGTTCAGG | -0.0779 |
| AGGTCCGC | -0.169 |
| TCTTCACA | -0.0429 |
| ACCCCACG | 0.267 |
| ATAATTGG | -0.169 |
| TAAGCAGA | -0.224 |
| TACCGAAA | -0.235 |

| Sequence | binding signal [E-score] |
| --- | --- |
| CCTAAAGG | -0.0597 |
| AGTATTAC | -0.0572 |
| GGCTAGTA | 0.018 |
| AGTCGCAG | -0.191 |
| AGACCCAT | -0.214 |
| GGCCTAGA | -0.173 |
| GAGATAGC | -0.12 |
| TGGCGAAA | -0.203 |
| CTTAAGGA | -0.203 |
| GTTTGAGA | -0.236 |
| GAAGCGAC | -0.0645 |
| ATTGTCGG | -0.0948 |
| GCACCGCC | 0.265 |
| AAAAGATA | -0.243 |
| AAAAATTC | 0.00686 |
| AGAAGGCG | -0.119 |
| ATACAACC | 0.0293 |
| AACTAACA | 0.242 |
| ATGGCAAT | -0.28 |
| GGAGAAGA | -0.184 |
| CTATAGAA | -0.0387 |
| TGCGACAA | -0.228 |
| CCTCTTAG | -0.157 |
| CCCGTTAG | -0.0237 |
| CTTTCTTC | -0.222 |

| Sequence | binding signal [E-score] |
| --- | --- |
| CAGTCAGA | 0.00636 |
| CACCTCGA | 0.217 |
| AAACTCCC | -0.0635 |
| GAATGAAC | -0.191 |
| ACAGTCCA | -0.176 |
| CTACTGCA | 0.0454 |
| GTAGATTA | 0.143 |
| AGCCATAT | -0.0662 |
| GACTGCCA | -0.194 |
| CGACCATC | 0.073 |
| ACTCGTCC | -0.129 |
| ATAGGGCG | -0.102 |
| CACGCACA | 0.262 |
| ACGCGCCA | -0.0748 |
| GGGCTCAC | 0.0957 |
| AGCCTTCC | -0.338 |
| CACGAACG | 0.207 |
| ACTGGTTC | 0.116 |
| CGCGTATA | 0.02 |
| ATGTCATA | -0.242 |
| GCGCGGAA | -0.0705 |
| ACTCCGCA | 0.225 |
| AACTAAGC | -0.111 |
| AGCAACTG | -0.283 |
| AGCTCAGA | -0.225 |

| Sequence | binding signal [E-score] |
| --- | --- |
| AACAGCGG | -0.224 |
| CGGTCACC | -0.0347 |
| AAGCTTTG | -0.199 |
| GCTTTATA | 0.0268 |
| ACGACCAG | 0.101 |
| ATCGTCAG | -0.0499 |
| CCTTGGAC | -0.0763 |
| GCTGGACC | -0.0526 |
| CGGGCACA | 0.199 |
| CAGACCGA | -0.116 |
| CTCTCCTC | -0.0725 |
| GCCCCCGC | 0.109 |
| AGCCCATC | -0.068 |
| GCCAGAGA | -0.159 |
| CGGTGCTA | 0.2 |
| ATGTATCC | 0.00305 |
| AAGGCACT | -0.0806 |
| CTCGCTAC | -0.0754 |
| GAGTGAGA | 0.0347 |
| ACTAGTCC | -0.0784 |
| AACTTTGG | -0.0984 |
| CGCTGAAC | -0.111 |

From PMC10668032
